This note sets out measurements from ChEMBL document CHEMBL4888484, “Replenishing the malaria drug discovery pipeline: Screening and hit evaluation of the MMV Hit Generation Library 1 (HGL1) against asexual blood stage Plasmodium falciparum ,using a nano luciferase reporter read-out” (2022).

In all, about 150,000 compounds went through this assay and about 540 (0.36%) showed an effect of 50% or more. The list shows a part of the results.

The subject of the experiment is Plasmodium falciparum. In words: Primary screen in NF54 nanoGlo assay, in single point, at 2uM, 72h; a lower Z score goes with more inhibition. Type of experiment: functional, Erythrocyte. The settings on record: timepoint 72 hour.
In general, % Inhibition refers to the drop in the measured response relative to a control, in per cent. With `O=C(CN1CCOCC1)N1CCN(C(=O)Nc2cccc3ccccc23)CC1`, the “% Inhibition” value is -3% and the Z score was 0.5.
With `CC(C)n1ccc(CC(=O)N2CCCC[C@@H]2CS(C)(=O)=O)n1`, the “% Inhibition” value was -1% and the Z score is recorded as 0.08.
For `CCN1CCN(C(=O)[C@H]2CCc3ncc(-c4ccc(OC)cc4)n3C2)CC1`, the “% Inhibition” value is reported as -7% and the Z score is 1.3.
`CCC[C@]1(CO)CCCN1C(=O)c1ccc(S(=O)(=O)NC2CC2)cc1`: the “% Inhibition” value is -11% and the Z score is listed as 1.59.
The like results for `CN(C)S(=O)(=O)CCN1CC(c2ccccc2)(c2ccccc2)CCC1=O` were, in that order, -13% and 1.23.
Consider `CC1CCN(C(=O)NCc2nccs2)C(C)C1` (stereo not given), for which the “% Inhibition” value is reported as -8% and the Z score was found to be 0.89.
Turning to `Cc1c(Cl)cccc1S(=O)(=O)N1C[C@H]2CC[C@@H](C1)N(C)C2=O`, the “% Inhibition” value is 4% and the Z score was -0.58.
With `COc1ccc(CN2CCN3CCCC3C2C)c(OC)c1OC` (stereo not given), the “% Inhibition” value came to 2% and the Z score is -0.37.
As for `Cc1cnccc1CN1CCC(n2cc(Cl)cn2)CC1`, the “% Inhibition” value is listed as -3% and the Z score was 0.57.
In the case of `CCCN1C(=O)c2cc(C(=O)NCc3cc(Br)ccc3OC)nn2C[C@@]1(C)C(=O)NC1CCCC1`, the “% Inhibition” value was 14% and the Z score is given as -1.67.
As for `CC(C)(C)c1cc(CNC(=O)[C@@H]2CCC(=O)NC(=O)N2)[nH]n1`, the “% Inhibition” value is -13% and the Z score was found to be 1.95.
For `CCCn1nnnc1Cn1ncc2ccccc2c1=O`, the “% Inhibition” value was 36% and the Z score was -4.79.
For the compound `Cc1noc([C@@H]2CCCCCN2C(=O)NCCc2ccccc2)n1`, the “% Inhibition” value is given as -3% and the Z score is listed as 0.51.
Regarding `O=C(O)c1cccc(CN2CCOCC2C2CCCO2)c1Cl` (stereo not given), the “% Inhibition” value is -5% and the Z score worked out at 0.88.
On to `COc1ncncc1NC(=O)N1CC[C@@H](C(F)(F)F)C2(CCOCC2)C1`, for which the “% Inhibition” value is reported as -4% and the Z score was 0.77.
On the same counts, the results for `OCCn1cc(Nc2ccc3nnc(-c4cc(Cl)cc(Cl)c4)n3n2)cn1` are 15% and -1.91.
Take `CC1CN(C(=O)c2nc(-c3ccccc3)cs2)CC[S+]([O-])C1` (stereo not given): the “% Inhibition” value is -7% and the Z score is listed as 1.29.
Consider `CCc1nc([C@@H]2CCCN2c2ncc(C#N)cc2Cl)no1`, for which the “% Inhibition” value is -4% and the Z score is given as 0.71.
On the same counts, the results for `Cc1ccccc1CNC(=O)N1CCCC[C@@H]1CN1CCCC1` are -9% and 1.77.
Regarding `CC(=O)N(C)c1cccc(NC(=O)N2CC(C)C2c2ccccc2)c1` (stereo not given), the “% Inhibition” value was -4% and the Z score is recorded as 0.43.
For the compound `COc1ccc(Oc2nccc(-c3ccccc3)c2C#N)cc1`, the “% Inhibition” value is -6% and the Z score was 0.71.
For `CN1CCC(N(CCc2ccccc2)C(=O)c2cn3cccnc3n2)CC1`, the “% Inhibition” value is on record as 0% and the Z score is on record as 0.07.
On the same counts, the results for `CN(C(=O)CCc1ccco1)C1CCCC1` are -4% and 0.56.
As to `CCOC(=O)[C@H]1CCCN(C(=O)c2cc(-c3cccc(OC)c3)n3nc(-c4ccccc4)cc3n2)C1`, the “% Inhibition” value came to 10% and the Z score is -1.86.
For `COc1ccc(C2=[N+]([O-])C(C)(C)C(c3ccccc3)=N2)cc1`, the “% Inhibition” value was -10% and the Z score amounted to 1.95.
With `CCOC(=O)N1CCC(NC(=O)c2cc(C(=O)Nc3ccc(C)c(F)c3)ccc2CO)CC1`, the “% Inhibition” value is reported as -7% and the Z score stood at 1.08.
The like results for `COCCC1CCN(C(=O)CNC(=O)c2ccccc2C)CC1` were, in that order, -14% and 2.76.
Turning to `CN(Cc1ccn(C)c(=O)c1)Cc1ccccc1Br`, the “% Inhibition” value was -8% and the Z score is on record as 1.2.
As for `CC(C)c1nnc(Cn2c(=O)ccn2-c2ccccn2)s1`, the “% Inhibition” value is given as -5% and the Z score is recorded as 0.65.
On the same counts, the results for `OC1CN(c2nnc(-c3ccccc3)s2)C1` are -23% and 2.65.
On the same counts, the results for `COC(=O)c1ccc(CN2CCN(c3cnn4c(C5CC5)nnc4c3)CC2)cc1` are -6% and 0.66.
Regarding `CCCCn1nc(CC(C)C)nc1[C@@H]1CCCN1C`, the “% Inhibition” value was -5% and the Z score amounted to 1.
`Cc1nnc2c(=O)n(CC(=O)N[C@@H](C)c3ccc(F)cc3)c3cccnc3n12`: the “% Inhibition” value is recorded as -13% and the Z score is recorded as 1.7.
For the compound `CCc1cnc(CN(C)C(=O)c2ncoc2C)s1`, the “% Inhibition” value stood at 0% and the Z score came out at 0.05.
For the compound `CC(C)n1ccc(CN2CCC(S(N)(=O)=O)CC2)n1`, the “% Inhibition” value was 1% and the Z score is recorded as -0.14.
Consider `NS(=O)(=O)Cc1cc(Cl)cc(Cl)c1`, for which the “% Inhibition” value is given as -9% and the Z score is listed as 0.88.
As to `N#CCCN(CCC(F)(F)F)S(=O)(=O)c1cncc(Cl)c1`, the “% Inhibition” value stood at 5% and the Z score was -0.66.
As for `COc1ccc([C@@H]2CCCN2C(=O)c2cccnc2O)cc1OC`, the “% Inhibition” value is listed as -9% and the Z score worked out at 0.79.
On the same counts, the results for `COc1ccc(NC(=O)N2C[C@@H]3C[C@H](NC(=O)c4cccs4)[C@H]2C3)c(C)c1` are 31% and -3.55.
For `COCCNc1c(C#N)c2c(c3nncn13)CN(C(C)C)CC2`, the “% Inhibition” value is recorded as -13% and the Z score is on record as 1.93.
For `Cc1cc(F)cc(NC(=O)C(=O)Nc2ccnn2C(C)C)c1`, the “% Inhibition” value came out at 6% and the Z score is on record as -1.12.
`Cc1nc(CCNC(=O)[C@H]2CC(=O)N(C)C2)cs1`: the “% Inhibition” value worked out at 5% and the Z score is recorded as -0.64.
As to `CN(C(=O)Cn1cc(-c2ccc(Cl)cc2)c(N2CCOCC2)n1)c1ccccc1`, the “% Inhibition” value is listed as -14% and the Z score is given as 1.6.
Consider `CCN(CC)[C@H](CNC(=O)CCc1ccc2c(c1)OCCO2)Cc1ccccc1`, for which the “% Inhibition” value is reported as 4% and the Z score is listed as -0.6.
In the case of `COCC[C@H]1CCOC2(CCN(C(=O)COc3ccccc3)CC2)C1`, the “% Inhibition” value came to 3% and the Z score is reported as -0.46.
The like results for `Cc1ccc(-c2nccn2CCS(=O)(=O)N(C)C)c2cccnc12` were, in that order, -17% and 2.58.
`CC(NC(=O)CCN1C(=O)CCC1=O)C1CCCO1` (stereo not given): the “% Inhibition” value is 0% and the Z score is recorded as -0.03.
`COc1ccc2[nH]cc(C(=O)CN3CCC4(CC3)OCCO4)c2c1`: the “% Inhibition” value was -9% and the Z score is recorded as 1.08.
As for `COc1cccc([C@@H]2CCCCN2C(=O)c2cc(COc3ccc(C(C)=O)cc3)on2)c1`, the “% Inhibition” value is on record as -3% and the Z score is listed as 0.28.
Consider `CC1(C)[C@H]2CC=C(CN3CCC(Cn4ccnc4)CC3)[C@@H]1C2`, for which the “% Inhibition” value is 10% and the Z score was -1.55.
For `Nc1nonc1-c1noc(N2CCCC2)n1`, the “% Inhibition” value was -11% and the Z score is 2.05.
Take `CC(C)(CNC(=O)C[C@H]1CCOC1)c1c(F)cccc1Cl`: the “% Inhibition” value is -22% and the Z score is on record as 1.9.
In the case of `CC(C)CC(=O)N[C@H]1CCC12CCOCC2`, the “% Inhibition” value worked out at 13% and the Z score is -1.72.
For `Cc1nc(-n2nc(C)c(CC(=O)N3CCCC3)c2C)sc1C`, the “% Inhibition” value is recorded as 7% and the Z score is reported as -0.85.
`CC(NCC1CCc2ccccc21)c1ncn(C)n1` (stereo not given): the “% Inhibition” value is -12% and the Z score amounted to 1.73.
